The text below walks through data of PubChem BioAssay AID1362 (SRMLSC, 2008).

This is one part of the list. The main result of the screen is listed elsewhere. These columns were measured beside it and carry no call. Most of these compounds were active or inconclusive in the main read-out, so they are no random draw.

This assay can be described thus: growth inhibition of WT strain, primary screen, mitochondrial fusion inhibitor project, WT and mutant strains, chemical genetic (AID 1362). Note: tested in S. cerevisiae. The following applies: mitochondrial fusion phenotypic screen, at 10 µM.
The inhibition is the relative decrease from the control value, in per cent. With `O=S(=O)(c1ccccc1)c1cnc(-c2cccnc2)nc1-c1ccc(Cl)cc1Cl`, the inhibition came to 30.9%.
Next, `CCn1c(O)c(C2=c3ccccc3=NC2=O)c2cc(Br)ccc21`: 56.6%.
Under `CC(C)(C)n1nnnc1C(c1ccc(F)cc1)N(Cc1ccc(F)cc1)Cc1ccco1` (stereo not given) stands -8.88%.
Next, `S=C(Nc1cccc(Cl)c1)N(CCCN1CCCC1)Cc1cccn1Cc1ccc(Cl)cc1`: 63.1%; `Cc1ccc(S(=O)(=O)N(CC(=O)NCCC2=CCCCC2)Cc2ccccc2F)cc1`: 17.3%; `O=C(N=C1SCC(=O)N1c1ccccc1Cl)c1ccccc1`: 27.1%.
As for `c1ccc(-c2c(-c3ccccc3)n(Cc3ccco3)c3ncnc(NCCCn4ccnc4)c23)cc1`, the inhibition came out at 32.2%.
For `Cc1noc2ncnc(Sc3ccccc3Cl)c12`, the inhibition amounted to 97.7%.
Next, `Cc1ccc(C2CCN(C(=S)NC3CCCCC3)C2)cc1` (stereo not given): 61.5%; `O=C(Nc1nnc(C2=COCCO2)o1)c1ccc(Cc2ccccc2)cc1`: 49.6%.
Under `Cc1ccccc1CN(C)CC(=O)Nc1ccccc1-c1ccccc1` stands 19.1%; under `c1ccc(Nc2scc(-c3ccccc3)[n+]2Cc2ccco2)cc1`, 51.4%; under `CCOC(=O)c1c(NC(NC(=O)C(C)C)C(Cl)(Cl)Cl)sc2c1CCC2` (stereo not given), 20.4%.
Take `Cc1ccc(NC(=O)c2cccs2)cc1S(=O)(=O)Nc1cccc(Cl)c1`: the inhibition amounted to 35.2%.
Next, `CC1=CC(C)(C)N(S(=O)(=O)c2ccc(F)cc2)c2ccc(C)cc21`: 39.5%; `COc1ccc(/C=C/c2nc3ccccc3n2Cc2ccccc2OC)cc1`: 29%.
As to `COc1ccc(OC)c(C2C=C(C34CC5CC(CC(C5)C3)C4)NC(=S)N2)c1` (stereo not given), the inhibition worked out at 62%.
Next, `CCC(=O)NNc1ccc(Br)cc1`: 59%.
Under `COc1cc2c(cc1NC(=O)CN1C(=O)NC3(CCc4ccccc43)C1=O)oc1ccccc12` (stereo not given) stands 35.4%; under `Cc1ccc2c(c1)c1c(n2CC(O)CNC2CCCCC2)CCCC1` (stereo not given), 87.5%; under `O=C(NCC1(c2ccccc2)CCCC1)C1(c2ccccc2)CCCC1`, -11.8%.
As to `CCCC1=C(C(=O)OCC)C(c2ccc(NC(C)=O)cc2)NC(=O)N1` (stereo not given), the inhibition was 51.8%.
Consider `Cn1nc(C(F)(F)F)c2cc(C(=O)Nc3ccc(Cl)cc3)sc21`, for which the inhibition turned out to be 46.9%.
For `COc1cc(OC)nc(Oc2ccccc2C(=O)Oc2cccc(C)c2)n1`, the inhibition was 50.7%.
Under `CCN(CC)C(=O)C1CC(=O)N(c2ccc(F)c(Cl)c2)C1` (stereo not given) stands 7.41%.
Next, `O=C(c1ccc(Cl)cc1)N1CCN(c2ccc(F)cc2)CC1`: 32.8%.
For `COc1ccc(Cn2c(-c3ccc(C)cc3)c[n+]3ccccc23)cc1`, the inhibition turned out to be 17.4%.
Under `O=C1c2ccccc2OC2(C=Cc3ccccc3O2)N1Cc1ccccc1` (stereo not given) stands 10.8%; under `COC(=O)CN(c1ccc2c(c1)OCCO2)S(=O)(=O)c1ccccc1`, 6.03%.
Under `Nc1cc(=O)[nH]c(=S)n1-c1ccccc1` stands 14.8%.
